This note sets out measurements from PMC4336329 (PLoS ONE, 2015).

Among all 310,000 compounds or so, about 2,200 (0.71%) showed an effect of 50% or more. The effect is printed as a negative number. Some of the results follow.

The target of this experiment is human ether-à-go-go-related gene (hERG) potassium channel (human, UniProt Q12809). Nature of the experiment: primary screen, population patch clamp on CHO cells stably expressing hERG.
human ether-à-go-go-related gene (hERG) potassium channel, sequence (Q12809 whole entry, looked up): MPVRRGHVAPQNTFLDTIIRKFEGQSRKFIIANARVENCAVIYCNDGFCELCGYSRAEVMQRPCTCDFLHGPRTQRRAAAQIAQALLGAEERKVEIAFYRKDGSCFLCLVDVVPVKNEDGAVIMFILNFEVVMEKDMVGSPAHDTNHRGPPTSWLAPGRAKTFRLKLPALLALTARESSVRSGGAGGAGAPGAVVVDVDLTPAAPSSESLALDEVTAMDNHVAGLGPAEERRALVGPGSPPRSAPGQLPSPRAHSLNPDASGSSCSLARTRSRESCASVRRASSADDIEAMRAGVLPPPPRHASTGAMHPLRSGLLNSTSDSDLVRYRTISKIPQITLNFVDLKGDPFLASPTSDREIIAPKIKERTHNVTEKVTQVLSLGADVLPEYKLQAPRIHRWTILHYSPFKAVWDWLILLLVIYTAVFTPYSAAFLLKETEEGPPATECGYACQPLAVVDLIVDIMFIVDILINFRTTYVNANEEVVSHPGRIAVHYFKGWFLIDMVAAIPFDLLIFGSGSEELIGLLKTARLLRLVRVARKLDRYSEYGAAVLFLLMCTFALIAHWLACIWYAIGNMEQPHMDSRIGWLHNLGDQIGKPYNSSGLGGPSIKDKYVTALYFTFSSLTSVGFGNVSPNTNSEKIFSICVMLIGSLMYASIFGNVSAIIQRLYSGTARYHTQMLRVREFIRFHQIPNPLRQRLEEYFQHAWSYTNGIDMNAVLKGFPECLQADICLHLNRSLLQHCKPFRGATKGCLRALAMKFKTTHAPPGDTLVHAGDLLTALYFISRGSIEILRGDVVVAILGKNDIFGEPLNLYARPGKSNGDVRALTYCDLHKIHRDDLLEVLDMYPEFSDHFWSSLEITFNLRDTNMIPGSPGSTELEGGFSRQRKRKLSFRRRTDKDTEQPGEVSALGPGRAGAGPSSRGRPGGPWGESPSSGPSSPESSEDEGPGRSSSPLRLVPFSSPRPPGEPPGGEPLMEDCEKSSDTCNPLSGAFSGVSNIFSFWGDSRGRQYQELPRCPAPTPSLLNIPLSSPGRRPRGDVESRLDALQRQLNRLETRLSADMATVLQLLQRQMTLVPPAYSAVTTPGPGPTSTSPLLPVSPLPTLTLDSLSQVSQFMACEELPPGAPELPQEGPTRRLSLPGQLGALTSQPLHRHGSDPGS
In the case of `Cc1ccsc1C(=O)OCc1nc2ccccc2c(=O)[nH]1`, the “hERG current change (%, negative = inhibition) at 1uM” value is recorded as 3.28%. `Cc1nn(-c2ccccc2)c(N2CCCC2)c1C=O`: the “hERG current change (%, negative = inhibition) at 1uM” value is on record as 9.02%. Regarding `COc1ccc(NC(=O)CN(C)C(=O)c2cccc(S(=O)(=O)N3CC4(C)CC3CC(C)(C)C4)c2)cc1` (centres unmarked), the “hERG current change (%, negative = inhibition) at 1uM” value stood at 9.37%.

`CCCCn1nc(C)c(C(=O)O)c1Cl`: the “hERG current change (%, negative = inhibition) at 1uM” value is listed as 15.8%.

For `COc1ccc(Cl)cc1N(CC(=O)N1CCN(Cc2ccccc2)CC1)S(C)(=O)=O`, the “hERG current change (%, negative = inhibition) at 1uM” value worked out at 0.337%. Turning to `Nc1cccc2c1C(=O)N(C(=O)c1cccc(S(=O)(=O)N3CCCC3)c1)C2=O`, the “hERG current change (%, negative = inhibition) at 1uM” value is on record as 12.5%. Regarding `CCOC(=O)C1=CC[C@]2(C)c3c(c4ccccc4n3C)C(=O)C1N2C`, the “hERG current change (%, negative = inhibition) at 1uM” value is 14.1%.

For the compound `Cc1ccc(OCC(=O)N(Cc2cccc(F)c2)C2CCS(=O)(=O)C2)cc1` (centres unmarked), the “hERG current change (%, negative = inhibition) at 1uM” value came to 4.55%.

`COc1ccc(N(CC(=O)NCCc2ccccc2)C(=O)c2csnn2)cc1OC`: the “hERG current change (%, negative = inhibition) at 1uM” value came out at 15.1%. Turning to `CCC(NC(=O)CCc1c(C)c2cc3c(-c4ccccc4)coc3cc2oc1=O)C(=O)O` (centres unmarked), the “hERG current change (%, negative = inhibition) at 1uM” value amounted to 12.5%.

Take `Br.Cc1c(-c2ccc(O)cc2)nc2nc(-c3ccccc3)c(-c3ccccc3)nn12`: the “hERG current change (%, negative = inhibition) at 1uM” value worked out at 13.3%. For the compound `CSc1sc(C)cc1C1C(C#N)=C(N)N(c2cccnc2)C2=C1C(=O)CCC2` (centres unmarked), the “hERG current change (%, negative = inhibition) at 1uM” value is 3.44%. Next, `COc1ccccc1-n1cnnc1SCC(=O)Nc1ncc(Cl)cc1Cl`: 13.5%. On to `CCOC(=O)C1=C(CSc2nc(-c3ccncc3)ccc2C#N)OC(N)=C(C#N)C1c1cccnc1` (centres unmarked), for which the “hERG current change (%, negative = inhibition) at 1uM” value is 6.5%. On to `CCOC(=O)N1CCC(n2c(SCC(=O)c3ccccc3)nc3ccsc3c2=O)CC1`, for which the “hERG current change (%, negative = inhibition) at 1uM” value was determined as 8.06%. For the compound `Cc1ccc(C)c(NC(=O)NNC(=O)c2cc3occc3[nH]2)c1`, the “hERG current change (%, negative = inhibition) at 1uM” value is 17.4%. Turning to `COc1ccc(N2C(=O)NC(NS(=O)(=O)c3ccc(NC(C)=O)cc3)(C(F)(F)F)C2=O)cc1` (centres unmarked), the “hERG current change (%, negative = inhibition) at 1uM” value stood at 11.6%. Take `O=C(CS(=O)(=O)c1ccc(F)cc1)NCc1ccccc1`: the “hERG current change (%, negative = inhibition) at 1uM” value is on record as 25%. In the case of `CCc1ccc(CN2CCC(C(=O)Nc3cccc(-c4nnc(C)s4)c3)CC2)o1`, the “hERG current change (%, negative = inhibition) at 1uM” value is -4.56%. `CCCc1cc(=O)[nH]c(SCCN2C(=O)c3ccccc3C2=O)n1`: the “hERG current change (%, negative = inhibition) at 1uM” value was determined as 3.36%.

As to `O=C(c1cccc(Br)c1)N1CCN(S(=O)(=O)N2CCCCC2)CC1`, the “hERG current change (%, negative = inhibition) at 1uM” value was 8.38%.

Regarding `CC1CCCCN1Cc1c(C#N)c2ccccc2n1C` (centres unmarked), the “hERG current change (%, negative = inhibition) at 1uM” value is reported as 9.49%. For `CC(=O)N1CCN(Cc2nc3cc(Cl)ccc3c(=O)[nH]2)CC1`, the “hERG current change (%, negative = inhibition) at 1uM” value turned out to be 12.5%.

With `O=C(CSc1nnc(CCCOc2ccc(Cl)cc2Cl)o1)Nc1ccc(C(=O)O)cc1`, the “hERG current change (%, negative = inhibition) at 1uM” value is reported as 4.6%. As for `Fc1ccccc1Oc1nc(-c2ccncc2)nc2ccccc12`, the “hERG current change (%, negative = inhibition) at 1uM” value is 16.8%. In the case of `Cc1[nH]c2ccccc2c(=O)c1CN1CCCCCC1`, the “hERG current change (%, negative = inhibition) at 1uM” value is listed as -1.52%. Turning to `Cc1ccccc1OCCCC(=O)Nc1ccc(N2CCOCC2)cc1`, the “hERG current change (%, negative = inhibition) at 1uM” value came to 8.06%. Under `C[C@@H](NC(=O)[C@@H]1Cc2ccccc2CN1)C(=O)Nc1ccc2c(c1)OCO2` stands 4.54%; under `NC(=O)c1nsc(C(=O)N(CC(=O)NC2CCCCC2)c2ccc(Cl)cc2)c1N`, 7.91%. Take `O=C(CCc1nc(-c2ccccc2Cl)no1)NCc1ccco1`: the “hERG current change (%, negative = inhibition) at 1uM” value worked out at 1.15%. For the compound `CCN(C(=O)Cn1nc(C(=O)O)c2ccccc2c1=O)C1CCCCC1`, the “hERG current change (%, negative = inhibition) at 1uM” value amounted to 5.03%. Regarding `CCCCC(=O)Nc1cccc(NC(=O)c2cccc(Br)c2)c1`, the “hERG current change (%, negative = inhibition) at 1uM” value is given as 7.86%. Under `CCN1C(=O)[C@H]2[C@@H](c3ccc(-c4ccc(F)cc4)cc3)N3CCCC[C@@]3(C(=O)OC)[C@H]2C1=O.O=C(O)C(F)(F)F` stands 16.8%. Take `CC(C)Cc1nc(SCC(=O)N2CC(C)OC(C)C2)c2c(=O)n(C)c(=O)n(C)c2n1` (centres unmarked): the “hERG current change (%, negative = inhibition) at 1uM” value is recorded as 12.3%. Consider `O=C(NCCO)C1CCN(C(=O)c2ccc(-c3ccccc3)cc2)CC1`, for which the “hERG current change (%, negative = inhibition) at 1uM” value is 12.7%. Under `COc1ccccc1N1CCN(CC(=O)NC(=O)NCc2ccco2)CC1` stands 3.08%; under `CSc1nnc(-c2nnc(SC)n2-c2ccccc2)n1-c1ccccc1`, -9.26%. Under `COCCN(C(=O)CCC(=O)Nc1cc(C)on1)C(C(=O)NC(C)(C)C)c1ccccc1Cl` (centres unmarked) stands 20.6%. Next, `Cc1cc(CC(=O)O)c(C)cc1CC(=O)O`: 1.79%; `COc1ccc(/C=C/C(=O)c2ccc(C)c([N+](=O)[O-])c2)cc1O`: 14.9%; `COC(=O)c1cc(N=Nc2sc(N)nc2C)cc(C(=O)OC)c1`: 5.57%.

`O=C(Nc1cccnc1)c1cc(F)cc(F)c1`: the “hERG current change (%, negative = inhibition) at 1uM” value was 11.2%. `CCCc1nc(SCC(=O)Nc2cc(C)on2)c2ccccc2n1`: the “hERG current change (%, negative = inhibition) at 1uM” value came out at 10.9%. In the case of `COc1ccc(C(=O)CCN2CCN(c3ccc(OC)cc3)CC2)cc1`, the “hERG current change (%, negative = inhibition) at 1uM” value is on record as -74.1%.
